Measurements as given in PMC9911399, “Two distinct binding modes provide the RNA-binding protein RbFox with extraordinary sequence specificity”.
Changes are numbered by the printed parent chain; changes in the protein carry UniProt numbers. The list shows a part of the results.

B1: GGCAUCC (DNA:RNA)
RNA: GGGAGACCGGAAUUCAGAUUGUCCGGCAUCCUUAAAUCCCGUCGUAGCCACCA
DNA 1: CAATCTGAATTCCGGTCTCCC
DNA 2: TGGTGGCTACGACGGGATT
B2: UAGAAUU (DNA:RNA)
RNA: B1 RNA with G25U, G26A, C27G, U29A, C30U, C31U
DNA 1: CAATCTGAATTCCGGTCTCCC
DNA 2: TGGTGGCTACGACGGGATT
B3: UUUUCUG (DNA:RNA)
RNA: GGGAGACCGGAAUUCAGAUUGUCCUUUUCUGUUAAAUCCCGUCGUAGCCACCA
DNA 1: CAATCTGAATTCCGGTCTCCC
DNA 2: TGGTGGCTACGACGGGATT
B4: AGAUGAC (DNA:RNA)
RNA: B1 RNA with G25A, C27A, A28U, U29G, C30A
DNA 1: CAATCTGAATTCCGGTCTCCC
DNA 2: TGGTGGCTACGACGGGATT
B5: CGUCCUG (DNA:RNA)
RNA: B3 RNA with U25C, U26G, U28C
DNA 1: CAATCTGAATTCCGGTCTCCC
DNA 2: TGGTGGCTACGACGGGATT
B6: GGGUGCA (DNA:RNA)
RNA: B1 RNA with C27G, A28U, U29G, C31A
DNA 1: CAATCTGAATTCCGGTCTCCC
DNA 2: TGGTGGCTACGACGGGATT
B7: CGUCGAA (DNA:RNA)
RNA: B1 RNA with G25C, C27U, A28C, U29G, C30A, C31A
DNA 1: CAATCTGAATTCCGGTCTCCC
DNA 2: TGGTGGCTACGACGGGATT
B8: AUUAGUA (DNA:RNA)
RNA: B3 RNA with U25A, U28A, C29G, G31A
DNA 1: CAATCTGAATTCCGGTCTCCC
DNA 2: TGGTGGCTACGACGGGATT
B9: AGAUCAU (DNA:RNA)
RNA: B3 RNA with U25A, U26G, U27A, U30A, G31U
DNA 1: CAATCTGAATTCCGGTCTCCC
DNA 2: TGGTGGCTACGACGGGATT
B10: GUUGUGU (DNA:RNA)
RNA: B1 RNA with G26U, C27U, A28G, C30G, C31U
DNA 1: CAATCTGAATTCCGGTCTCCC
DNA 2: TGGTGGCTACGACGGGATT
B11: UAGUGUU (DNA:RNA)
RNA: B3 RNA with U26A, U27G, C29G, G31U
DNA 1: CAATCTGAATTCCGGTCTCCC
DNA 2: TGGTGGCTACGACGGGATT
B12: CAGAGGA (DNA:RNA)
RNA: B1 RNA with G25C, G26A, C27G, U29G, C30G, C31A
DNA 1: CAATCTGAATTCCGGTCTCCC
DNA 2: TGGTGGCTACGACGGGATT
B13: AAAAUGU (DNA:RNA)
RNA: B1 RNA with G25A, G26A, C27A, C30G, C31U
DNA 1: CAATCTGAATTCCGGTCTCCC
DNA 2: TGGTGGCTACGACGGGATT
B14: UGGACAU (DNA:RNA)
RNA: B1 RNA with G25U, C27G, U29C, C30A, C31U
DNA 1: CAATCTGAATTCCGGTCTCCC
DNA 2: TGGTGGCTACGACGGGATT
B15: ACUUAUG (DNA:RNA)
RNA: B3 RNA with U25A, U26C, C29A
DNA 1: CAATCTGAATTCCGGTCTCCC
DNA 2: TGGTGGCTACGACGGGATT
B16: CACGCGC (DNA:RNA)
RNA: B1 RNA with G25C, G26A, A28G, U29C, C30G
DNA 1: CAATCTGAATTCCGGTCTCCC
DNA 2: TGGTGGCTACGACGGGATT
B17: CCCUUGC (DNA:RNA)
RNA: B1 RNA with G25C, G26C, A28U, C30G
DNA 1: CAATCTGAATTCCGGTCTCCC
DNA 2: TGGTGGCTACGACGGGATT
B18: AGUUCUC (DNA:RNA)
RNA: B3 RNA with U25A, U26G, G31C
DNA 1: CAATCTGAATTCCGGTCTCCC
DNA 2: TGGTGGCTACGACGGGATT
B19: AUUCAAU (DNA:RNA)
RNA: B3 RNA with U25A, U28C, C29A, U30A, G31U
DNA 1: CAATCTGAATTCCGGTCTCCC
DNA 2: TGGTGGCTACGACGGGATT
B20: CGGGGCU (DNA:RNA)
RNA: B1 RNA with G25C, C27G, A28G, U29G, C31U
DNA 1: CAATCTGAATTCCGGTCTCCC
DNA 2: TGGTGGCTACGACGGGATT

Each binder was assayed against T1, RBFOX1 RRM RbFoxmut (Fox-RRM*) (Homo sapiens, UniProt Q9NWB1 109-208, R118D;E147R;N151S;E152T) (assay: EMSA; HiTS-Eq, 1 nM pool, 10 min; buffer printed only for the single-RNA assays: 10 mM Tris pH 7.5, 150 mM NaCl, 3.4 mM EDTA, 0.001% NP-40, 30 C). Details: tags: His6 N-terminal (pET28a); label: 5' 32P.
T1 sequence: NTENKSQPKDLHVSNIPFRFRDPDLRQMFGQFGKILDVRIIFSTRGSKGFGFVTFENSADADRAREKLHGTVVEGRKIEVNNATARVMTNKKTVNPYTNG
How it was run: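 Relative association constants, normalised to the cognate motif, were derived by comparing read counts of each RNA species with those of the control reaction. The RNA sequenced was the free fraction, separated by 8% native PAGE after a 10 min equilibration in 50 µL of 1 nM 5′-radiolabelled RNA (7 randomized nucleotides) with increasing concentrations of purified wild-type or mutant RbFox RRM.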

Row | Binder | binding signal
1 | B1 | 0.229 KA relative to UGCAUGU
2 | B2 | 0.0987 KA relative to UGCAUGU
3 | B3 | 0.0689 KA relative to UGCAUGU
4 | B4 | 0.0939 KA relative to UGCAUGU
5 | B5 | 0.132 KA relative to UGCAUGU
6 | B6 | 0.234 KA relative to UGCAUGU
7 | B7 | 0.137 KA relative to UGCAUGU
8 | B8 | 0.173 KA relative to UGCAUGU
9 | B9 | 0.0736 KA relative to UGCAUGU
10 | B10 | 0.224 KA relative to UGCAUGU
11 | B11 | 0.14 KA relative to UGCAUGU
12 | B12 | 0.0888 KA relative to UGCAUGU
13 | B13 | 0.101 KA relative to UGCAUGU
14 | B14 | 0.0553 KA relative to UGCAUGU
15 | B15 | 0.125 KA relative to UGCAUGU
16 | B16 | 0.11 KA relative to UGCAUGU
17 | B17 | 0.11 KA relative to UGCAUGU
18 | B18 | 0.0586 KA relative to UGCAUGU
19 | B19 | 0.0679 KA relative to UGCAUGU
20 | B20 | 0.0906 KA relative to UGCAUGU
